The whole screen tested about 340,000 compounds, of which about 6,900 (2%) were called active. Rule as the data show it: active = inhibition above about 30%; inactive = below that, where a call was filed. The list shows a part of the results, in another mix than the full data. The source gives no active or inactive call for entries shown without one.
Each compound was assayed against D(2) dopamine receptor (Homo sapiens) (UniProt P14416) (assay: HTS Assay for Allosteric Antagonists of the Human D2 Dopamine Receptor: Primary Screen for Antagonists). Details: HEK293 TREx D2 cells, calcium flux, dopamine EC80; at 10 µM; stronger effect = higher value.
Sequence of UniProt P14416 (P14416 whole entry, looked up): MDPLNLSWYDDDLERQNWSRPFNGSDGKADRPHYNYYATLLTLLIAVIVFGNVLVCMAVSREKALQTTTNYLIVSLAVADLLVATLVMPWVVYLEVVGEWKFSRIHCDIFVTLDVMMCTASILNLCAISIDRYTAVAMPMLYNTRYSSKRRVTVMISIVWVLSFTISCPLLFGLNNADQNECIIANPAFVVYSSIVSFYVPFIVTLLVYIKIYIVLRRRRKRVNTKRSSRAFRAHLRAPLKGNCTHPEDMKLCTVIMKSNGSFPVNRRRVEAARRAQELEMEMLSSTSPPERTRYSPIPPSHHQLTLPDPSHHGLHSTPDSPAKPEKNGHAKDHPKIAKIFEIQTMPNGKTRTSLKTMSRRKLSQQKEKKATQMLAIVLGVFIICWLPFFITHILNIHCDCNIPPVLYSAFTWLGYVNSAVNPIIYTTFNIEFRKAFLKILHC
Summary of the method: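 In this primary screen, negative modulation is detected by tracking calcium flux after an EC80 dopamine challenge in inducible HEK293 T-REx D2 cells preexposed to test compound for 180 s.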
Also: 0% is about no effect.

Row | Compound | inhibition
1 | CC1CCCCN1CCCNC(=O)Cn1ncc2c([nH]c3ccccc32)c1=O (configuration not stated) | -7.68%
2 | Cc1cccc(CNS(=O)(=O)c2ccc3[nH]c(=O)ccc3c2)c1 | -1.83%
3 | Cc1ccccc1NC(=O)Nc1nnc(CC(=O)NCc2ccccc2)s1 | active: 31.5%
4 | Cc1cc(C=O)c(C)n1-c1ccc(Cl)c(C(=O)O)c1 | active: 37%
5 | COc1ccccc1CNC(=O)c1ccc(N2CCCC2)c(NC(=O)NCc2ccccc2)c1 | -15.4%
6 | CCN(CC)S(=O)(=O)c1nnc(NC(=O)COc2ccccc2Cl)s1 | -12.3%
7 | CCc1nn(CC(=O)NCCCN2CCc3ccccc3C2)c(=O)c2cc3sccc3n12 | active: 79.1%
8 | CCOc1ccc(C(=O)Nc2cccc(NC(=O)c3ccco3)c2)cc1Cl | -0.94%
9 | Cn1c(=O)c2c(nc(N/N=C/c3ccco3)n2C)n(C)c1=O | active: 52.3%
10 | O=C(COc1ccccc1F)OCc1cc(=O)n2nc(-c3cccs3)sc2n1 | -17.7%
11 | Cc1ccc(NC(=S)NC2CCN(Cc3ccccc3)CC2)cc1C | active: 77.6%
12 | CCC(C(=O)N1CCN(c2ccccc2)CC1)n1nc(C)n2c(cc3sccc32)c1=O (configuration not stated) | 8.23%
13 | CCc1nn2c(=O)cc(COC(=O)CNC(=O)c3ccccc3)nc2s1 | 5.08%
14 | O=C(Nc1ccc(Br)cc1)C1CCN(c2cnccn2)CC1 | -27.2%
15 | COc1cc(OC)c(Nc2cc(C)nc3ncnn23)cc1Cl | -3.16%
16 | COc1ccccc1N1CCN(S(=O)(=O)c2c(C)sc3ncn(CC(=O)Nc4cccc(Cl)c4)c(=O)c23)CC1 | -0.231%
17 | COC(=O)c1c(-c2ccc(Cl)cc2)noc1N1CCN(c2ccc(OC)cc2)CC1 | 2.17%
18 | COc1ccc(C2CC(c3c(O)n(C4CCCCC4)c(=O)[nH]c3=O)=Nc3ccccc3S2)cc1 (configuration not stated) | 14.1%
19 | Cc1ccc2c(c1)NC(=O)C(CC(=O)Nc1cc(Cl)ccc1C)O2 (configuration not stated) | 12.4%
20 | Cc1n[nH]c(C)c1CCC(=O)N/N=C/c1cccc([N+](=O)[O-])c1 | active: 45.5%
21 | COc1ccc(C(=O)NCc2nnc(SCC(=O)Nc3ccccc3)n2-c2ccc(F)cc2)cc1 | 0.484%

Row | Compound | inhibition
22 | COc1ccc(OC)c(NC(=O)CSc2ccnc(=O)[nH]2)c1 | 16.3%
23 | COc1ccc(NC(=O)c2c(NCc3ccc(C)o3)sc3c2CCC(C)C3)c(OC)c1 (configuration not stated) | 3.7%
24 | COc1ccccc1-c1cc(C(=O)Nc2sc3c(c2C#N)CCCC3)no1 | -12.9%
25 | Cn1c(=O)oc2cc(S(=O)(=O)CCC(=O)N3CCN(c4ccccc4)CC3)ccc21 | -6.26%
26 | Clc1ccc(N2CCN(c3ncnc4c3nc3n4CCCC3)CC2)cc1 | -13.3%
27 | COc1cccc(N2CCN(C(=O)C3CCN(S(=O)(=O)c4ccc5c(c4)oc(=O)n5C)CC3)CC2)c1 | 8.24%
28 | COc1ccc2c(c1)CC(C(=O)NCCCN1CCN(c3ccc(F)cc3)CC1)CO2 (configuration not stated) | 1.46%
29 | COc1cccc(C(=O)Nc2cc3c(cc2C(=O)c2ccc(C)cc2)OCCO3)c1 | -6.12%
30 | CCOC(=O)C1CCCN(c2nc3c(S(=O)(=O)c4ccc(C)c(C)c4)nnn3c3ccc(Cl)cc23)C1 (configuration not stated) | 8.2%
31 | CCn1c(=O)c2sccc2n2c(CCC(=O)Nc3cc(C)cc(C)c3)nnc12 | 22.7%
32 | Cc1ccc(Cl)cc1N1CCN(c2ncnc3onc(C)c23)CC1 | -3.1%
33 | Cc1ccc(OCC(=O)Nc2ccc3nc(SCC(=O)N4CCc5ccccc54)sc3c2)cc1 | 3.42%
34 | Cc1cc(C)cc(OCC(=O)Nc2ccc(-c3nc4ccccc4o3)cc2)c1 | -13.4%
35 | CCC(=O)N1CCc2cc(S(=O)(=O)NC(C(=O)Nc3ccc(C(C)=O)cc3)C(C)C)ccc21 (configuration not stated) | -2.38%
36 | COc1cc(N)c(Cl)cc1C(=O)N[C@@H]1CCN(CCCOc2ccc(F)cc2)C[C@@H]1OC | active: 76.6%
37 | CCOC(=O)N1CCC(NCCNC(=O)c2ccco2)CC1 | active: 38.2%
38 | CCC(=O)N1CCc2cc(Br)cc(S(=O)(=O)N3CCCC(C(=O)N(C)c4ccc(Br)cc4)C3)c21 (configuration not stated) | -15%
39 | O=C(NCCc1ccccc1)c1cnn(-c2ccc(F)cc2)c1-n1cccc1 | 5.55%
40 | CCOC(=O)N1CCc2c(sc3c2c(=O)n(CCc2ccccc2)c(=O)n3Cc2c(F)cccc2Cl)C1 | -8.08%
41 | CCc1ccc(CNC(=O)CN2CCSc3ccccc32)cc1 | -12.6%
42 | Cc1ccc(NC(=O)C(=O)NCC2(c3ccccc3)CCCC2)cc1Cl | 5.35%

Row | Compound | inhibition
43 | Cc1ccc(NC(=O)CSc2nc3n[nH]c(C)c3c(=N)n2-c2cccc(C)c2)cc1 | 2.52%
44 | O=C(CN1C(=O)COc2ccc(S(=O)(=O)N3CCCCCC3)cc21)NCc1ccc(F)cc1 | 17.5%
45 | CCSc1ncc(Cl)c(C(=O)Nc2ccc(S(=O)(=O)N(C)c3ccccc3)cc2)n1 | 3.25%
46 | CCCSCCCNC(=O)c1ccc2nc(Cc3ccccc3)oc2c1 | -5.42%
47 | Cc1cc(Nc2cccc(Cl)c2)nc2ccc(NC(=O)c3cccnc3)cc12 | -13%
48 | COc1ccc(Nc2cc(C(=O)NCc3ccccc3OC)c3ccccc3n2)cc1 | -3.6%
49 | Cc1cc(OCC(=O)N(Cc2sccc2C)C2CCS(=O)(=O)C2)ccc1Cl (configuration not stated) | 5.5%
50 | CCc1cccc(C)c1NC(=O)CSc1nnc(CC)n2c1cc1occc12 | -0.941%
51 | COc1ccc(CNC(=O)CN2C(=O)c3cccnc3Oc3ccc(C)cc32)cc1 | -0.449%
52 | Cc1cc(C)c2c(CC(=O)Nc3c(C(=O)Nc4ccc(Cl)cc4)oc4ccccc34)coc2c1 | 15%
53 | COc1ccc(N2CCN(c3oc(/C=C/c4cc(OC)c(OC)c(OC)c4)nc3C#N)CC2)cc1 | -2.69%
54 | Cc1[nH]c(=O)c(C#N)cc1-c1csc(-c2ccccc2)n1 | active: 38.7%
55 | COc1cc(C(=O)Nc2ccc3oc(-c4ccc(C)c(Br)c4)nc3c2)cc(OC)c1OC | -1.06%
56 | Cc1cc(C)cc(Oc2nc3c(c(=O)n(C)c(=O)n3C)n2Cc2ccc(F)cc2)c1 | 10.5%
57 | CCOC(=O)c1ccccc1NC(=O)N(C)CCc1c(C)nn(CC)c1C | 13%
58 | COc1ccc(F)cc1S(=O)(=O)NCCc1sc2nc(-c3ccc(F)cc3)nn2c1C | 0.353%
59 | CCCCCCSc1nsc(N)n1 | active: 51.1%
60 | CC1CN(C(=O)Nc2ccc(C(=O)NCc3cccc(F)c3)cc2)c2ccccc2S1 (configuration not stated) | 8.89%
61 | O=C(Nc1ccccc1Cl)N1CCC(CN2CCCCC2)CC1 | -3.34%
62 | O=C(Nc1ccc(C(F)(F)F)cc1)C1CCCN(c2cnccn2)C1 (configuration not stated) | -7.66%

Source: PubChem BioAssay AID485344 (National Center for Advancing Translational Sciences (NCATS), 2010)
